In PubChem BioAssay AID1240 (Sanford-Burnham Center for Chemical Genomics, 2008) one finds displacement data, which are given here for 113 compounds.

Hit rate of the full screen: of about 50,000 compounds, about 800 (1.6%) showed an effect of 50% or more. Some of the results follow.

In this assay the target is Bcl-2-like protein 10 (Homo sapiens) (UniProt Q9HD36). The assay can be described thus: TR3 peptide-Bcl-B binding displacers, biochemical primary FP assay, phenotype converters (AID 1240).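 Further: 0% = Bcl-B with tracer peptide and DMSO and 100% = tracer peptide lacking Bcl-B.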 The conditions noted are these: GST-Bcl-B / FITC-TR3 peptide fluorescence polarization; stronger effect = higher value; compound at 3.75 mg/L. For orientation: Fluorescence polarisation rises when a labelled molecule tumbles more slowly, as on binding a larger partner.
Sequence of UniProt Q9HD36 (Q9HD36 whole entry, looked up): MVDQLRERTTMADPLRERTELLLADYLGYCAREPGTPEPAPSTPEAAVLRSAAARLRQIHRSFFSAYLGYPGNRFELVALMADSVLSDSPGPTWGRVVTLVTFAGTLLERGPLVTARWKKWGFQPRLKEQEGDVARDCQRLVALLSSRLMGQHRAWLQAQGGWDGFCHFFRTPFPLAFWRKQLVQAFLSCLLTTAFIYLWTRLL
Consider `S=c1[nH]nc(-c2ccco2)n1C1CCCCC1`, for which the displacement is 7.6%.

Regarding `N#Cc1c(/N=C/N2CCCCC2)sc2c1CCCC2`, the displacement was determined as 3.2%.

As to `Cc1ccc(-c2csc(N/N=C/c3cc(Br)ccc3O)n2)cc1`, the displacement was -4.5%.

Regarding `CCc1ccc(N2C(=O)/C(=C/c3ccc(O)c(OC)c3)C(=O)NC2=S)cc1`, the displacement amounted to 11.9%.

With `CCOc1c(/C=C(\C#N)C(N)=O)c2ccccc2n1-c1c(Cl)cccc1Cl`, the displacement is -9.2%.

As for `CCOC(=O)C1=C(O)CSC1=Nc1ccc(Cl)cc1Cl`, the displacement was -8.1%.

As for `CS(=O)(=O)N(CC(=O)Nc1cccnc1)c1ccc(Oc2ccccc2)cc1`, the displacement was -3.6%.

Regarding `NC(=O)c1cccc(N=Cc2cc(Cl)cc(Cl)c2O)c1`, the displacement was found to be 145%.

Regarding `CCN(CC)CCCNC(=O)c1ccc(Cl)cc1`, the displacement amounted to 11%.

Regarding `COc1ccccc1C=NN1CCN(Cc2ccc(C)cc2C)CC1`, the displacement worked out at 13.6%.

In the case of `CCc1c(C)nc2[nH]nc(-c3ccccc3)n2c1=O`, the displacement is 8.6%.

Regarding `Cc1ccc(NS(=O)(=O)c2cc(Cl)ccc2Cl)c([N+](=O)[O-])c1`, the displacement was -12.3%.

With `CCOc1cc(/C=N/NC(=O)c2cccs2)ccc1OC(=O)c1ccc(C)cc1`, the displacement was -5.1%.

For `COc1ccc(NC(C)c2ccccc2)cc1` (stereo not drawn), the displacement is 10%.

As to `CCOc1cc(/C=N/NC(=O)c2ccccn2)ccc1OC(=O)c1cccs1`, the displacement was found to be 2.3%.

As for `COc1ccc(C(NC(=O)CC(C)C)NC(=O)CC(C)C)cc1`, the displacement was -7.2%.

In the case of `O=C(Cc1ccccc1)N/N=C/C=C/c1ccccc1Cl`, the displacement was -4.7%.

On to `NC(=O)CCN1C(=O)/C(=C\c2ccc(F)cc2)SC1=S`, for which the displacement amounted to 1.4%.

On to `O=C(Nc1ccccc1)Nc1nnc(-c2ccc(F)cc2)s1`, for which the displacement is -7%.

As to `COC(=O)c1ccc(/C=C2/Sc3ccccc3C2=O)cc1`, the displacement worked out at 18.2%.

Turning to `COc1nc(NS(=O)(=O)c2ccc(N)cc2)nc(N(C)C)n1`, the displacement is -1.3%.

As for `CCOC(=O)C1CCN(C(=O)CC(c2ccccc2)c2ccccc2)CC1`, the displacement amounted to 11.4%.

With `Cc1cc(-c2ccccc2)c2nncn2n1`, the displacement came out at 8.3%.

For the compound `COc1ccc(N2C(=O)C3C4CC(=O)C(c5ccccc54)C3C2=O)cc1` (stereo not drawn), the displacement was 1.6%.

For `CC(=O)c1cccc(NC(=O)c2ccc(-c3ccc(Cl)cc3Cl)o2)c1`, the displacement was -4.6%.

Consider `CC(NC(=O)CSc1ncc(-c2ccccc2)[nH]1)c1ccccc1` (stereo not drawn), for which the displacement is -9.6%.

With `COc1ccc(S(=O)(=O)Nn2cnnc2)cc1`, the displacement is -1%.

As to `CC(C)OC(=O)C(C(=O)C(F)(F)F)c1cc(NS(=O)(=O)c2ccc(Cl)cc2)ccc1O` (stereo not drawn), the displacement is 7.9%.

As for `O=C(CNc1cccc(Cl)c1)c1ccc(Br)cc1`, the displacement came out at 11.2%.

Take `N#C/C(=C\c1ccc(-c2ccc(Cl)c(Cl)c2)o1)c1ccccc1`: the displacement stood at 135%.

`COc1ccc2c(c1)-c1c(ssc1=S)C(C)(C)N2C(=O)CSc1nc(C)cc(C)n1`: the displacement stood at 12.1%.

Consider `CCC(C)c1ccc(OCCOc2ccc(/C=C3/SC(=S)N(C)C3=O)cc2)cc1` (stereo not drawn), for which the displacement is 3%.

With `O=C(NCc1cccs1)C(=O)Nc1ccccc1`, the displacement was -1.2%.

As to `COc1ccc(/C=c2\sc3nnc(-c4ccc(C)cc4)n3c2=O)c(OC)c1`, the displacement was 73.8%.

`CC(=O)Nc1ccc(NC(=O)c2ccc(Cl)c(Cl)c2)cc1`: the displacement came to 1.7%.

In the case of `O=C(NNc1nc(Nc2ccccc2)nc(N2CCOCC2)n1)Nc1ccc(Cl)cc1`, the displacement was determined as 12.2%.

As for `COc1ccc(N(CC(=O)Nc2cc(C)ccc2C)S(C)(=O)=O)cc1Cl`, the displacement is 9.1%.

Take `O=C(Nc1ccc2nn(-c3ccccc3)nc2c1)c1ccc([N+](=O)[O-])cc1`: the displacement was 4.5%.

Consider `CCC/C(O)=C1\C(=O)CC(C)(C)CC1=Nc1ccccc1`, for which the displacement was found to be 3.7%.

Take `CN(C)CCCN1C(=O)CSC1c1cccc(Cl)c1` (stereo not drawn): the displacement was -5.4%.

For `CCOC(=O)c1ccccc1NC(=O)Cc1ccccc1[N+](=O)[O-]`, the displacement is -0.2%.

On to `Fc1ccc(-c2ccc(C(=S)N3CCN(c4ccccc4)CC3)o2)cc1`, for which the displacement was 4.1%.

As to `CCc1ccc(OCC(=O)Nc2ccc(F)cc2)cc1`, the displacement turned out to be 15.9%.

On to `N#C/C(=C\c1ccc(-c2cccc(C(F)(F)F)c2)o1)C(N)=O`, for which the displacement is -2.5%.

Consider `Cc1ccc(-c2nc3ncccc3o2)cc1NC(=O)c1ccco1`, for which the displacement worked out at 11.6%.

For the compound `COCCCN1C(=O)/C(=C\c2ccc(SC)cc2)C(C(=O)OC)=C1C`, the displacement is 1.8%.

With `CC(C)CCSc1nc2sc3c(c2c(=O)n1Cc1ccccc1)CCC3`, the displacement was determined as 7.8%.

As to `Cc1ccc(NC(=O)C(=O)NCc2ccccc2Cl)cc1`, the displacement came to 0.2%.

With `CC1=C(C)CC2C(=O)N(c3ccccc3[N+](=O)[O-])C(=O)C2C1` (stereo not drawn), the displacement is -10.1%.

As to `O=c1oc2cc([N+](=O)[O-])ccc2nc1/C=C(\O)c1ccc(Br)cc1`, the displacement stood at 18.6%.

Regarding `Cc1cc(C)n(-c2cc(N3CCOCC3)nc(C)n2)n1`, the displacement is -1.2%.

With `O=C(CSc1nc2ccccc2n1Cc1ccccc1)N/N=C/c1ccco1`, the displacement came out at 6.1%.

As to `COc1cc(NC(=O)c2ccccc2C)c(Cl)cc1NC(=O)c1ccccc1`, the displacement came to 7%.

Consider `CC1=C(C(=O)OC2CCCC2C)C(c2ccccc2)NC(=O)N1` (stereo not drawn), for which the displacement amounted to 0.5%.

Regarding `CCOc1cc(/C=C(\C#N)c2nc3ncc(Br)cc3[nH]2)ccc1O`, the displacement stood at 0.5%.

For the compound `COc1ccc(-n2nc3cc(C)c(NC(C)=O)cc3n2)cc1`, the displacement was 3.3%.

With `CC(=O)c1nc2cc([N+](=O)[O-])ccc2n1Cc1ccccc1`, the displacement is 1.8%.

As to `O=C(NCCNc1c(Cl)cccc1[N+](=O)[O-])c1cc(F)c(F)cc1Cl`, the displacement stood at 9.7%.

With `O=[N+]([O-])/C=C/c1ccc(-c2ccc(Cl)cc2)o1`, the displacement stood at 14.7%.

Take `COC(=O)c1ccc(NC(=O)COc2ccccc2C(C)C)cc1`: the displacement was 14.3%.

`COc1ccc(S(=O)(=O)N2CCN(c3ccc(F)cc3)CC2)cc1`: the displacement was -12%.

For the compound `COC(=O)c1coc(-c2ccc(C)cc2)c1C(=O)OC`, the displacement is -5.5%.

Consider `Cc1ccc2c(c1)-c1c(ssc1=S)C(C)(C)N2C(=O)CC(C)C`, for which the displacement was 10.5%.

Turning to `O=C1OC(c2ccc(Cl)cc2)=C/C1=C\c1ccc(-c2ccccc2C(=O)O)o1`, the displacement stood at 4%.

Consider `O=C1OC(c2ccccc2)=C/C1=C/N1CCOCC1`, for which the displacement is -5.9%.

Consider `O=c1c2ccccc2c(-c2ccccc2)nn1-c1cc(N2CCN(CCO)CC2)ccc1[N+](=O)[O-]`, for which the displacement is -5.5%.

`COCCNC(=O)CN(c1ccc(OC)cc1OC)S(=O)(=O)c1ccc(C)cc1`: the displacement is 8.1%.

Consider `CCOC(=O)C1CCCN(C2CC(=O)N(c3ccc(C)cc3)C2=O)C1` (stereo not drawn), for which the displacement was 2.3%.

In the case of `O=C(NC(=S)Nc1ccccc1O)c1cccnc1`, the displacement was -6.1%.

`Cc1[nH]n(-c2ccccc2)c(=O)c1C=O`: the displacement is -0.7%.

Turning to `COc1ccc(OC)c(C2CC(O)(c3ccccc3OC)C(C)C(c3cc(OC)ccc3OC)N2)c1` (stereo not drawn), the displacement was 12.1%.

Take `CCCOc1ccc(/C=C/C(=O)c2cccs2)cc1OCC`: the displacement is -13.4%.

In the case of `COC(=O)c1ccc(/C=C2\C(=O)NC(=S)N(c3ccc(Br)cc3C)C2=O)cc1`, the displacement was determined as 16.9%.

Consider `COc1ccc(C2NC(=S)NC(C)=C2C(=O)Nc2ccccc2)cc1OC` (stereo not drawn), for which the displacement was -9.2%.

Regarding `O=C1C=CC(=O)N1c1ccc(Oc2ccc(S(=O)(=O)c3ccc(Oc4ccc(N5C(=O)C=CC5=O)cc4)cc3)cc2)cc1`, the displacement was -0.3%.

For `CCOC(=O)C(C)Oc1ccc2oc(C)c(C(=O)OCCOC)c2c1` (stereo not drawn), the displacement came out at 5.9%.

For the compound `O=C(Nc1ccc(NC(=O)c2ccc(Cl)cc2Cl)cc1)c1ccccc1O`, the displacement was 14.8%.

Regarding `CCN(CC)c1c(-c2ccccc2)c2cc(C)ccc2[nH]c1=O`, the displacement is -15.9%.

With `Cc1ccc(OCC(=O)NCc2ccncc2)cc1`, the displacement is -0.3%.

As to `CCOC(=O)c1c(-n2c(C)cc(/C=C3/SC(N)=NC3=O)c2C)sc2c1CCCC2`, the displacement was -33.6%.

With `C=CCN(CC=C)C(=O)CCc1ccccc1`, the displacement is -9.8%.

For the compound `CC(Cc1ccccc1)NC(=O)CCC(=O)NC(C)Cc1ccccc1` (stereo not drawn), the displacement is 20.2%.

Turning to `CCCCOC(=O)c1ccc(NC(=O)C(C)(C)C)cc1`, the displacement is 35.7%.

Regarding `CCCOc1cccc(C(=O)Nc2c(C)ccc3nsnc23)c1`, the displacement was found to be 9%.

Regarding `CC(=O)C1=C(Nc2ccc(Br)cc2)CC(C)(O)C(C(C)=O)C1c1ccc(Cl)cc1` (stereo not drawn), the displacement was -7.5%.

As for `CC1(C)Cc2ccccc2C(Nc2ccc(Cl)cc2)=N1`, the displacement is 7.2%.

On to `CCOc1cc(/C=C2\C=C(c3ccc(C)cc3)OC2=O)ccc1OC(C)=O`, for which the displacement stood at 111%.

With `N#CCc1ccc(NC(=O)c2cc(Cl)cc(Cl)c2O)cc1`, the displacement was 2.7%.

In the case of `COc1cc(C(=O)Nc2ccc(C(C)C)cc2)c([N+](=O)[O-])cc1OC`, the displacement is 11.1%.

Turning to `CCOC(=O)c1c(N)sc2c1CCC(c1ccccc1)C2` (stereo not drawn), the displacement is -1.2%.

Consider `O=C(O)C1Cc2c([nH]c3ccccc23)C(c2ccccc2F)N1` (stereo not drawn), for which the displacement was 24.3%.

Regarding `Cc1c(NC(=O)c2ccc3c(c2)OCCO3)cccc1-c1nc2ncccc2o1`, the displacement was -30%.

For `O=C(/C=C/c1cccs1)Nc1ncc(Cc2ccccc2Cl)s1`, the displacement is 10.7%.

With `CCn1c(C(O)c2ccccc2)nc2ccccc21` (stereo not drawn), the displacement amounted to 1.5%.

Consider `CC(C)(C)NC(=O)c1cnn2c1NC(c1ccc(F)cc1)CC2C(F)(F)F` (stereo not drawn), for which the displacement amounted to 5.1%.

With `Cc1ccc(C2(c3ccc(C)cc3)CC2C(=O)NCCc2ccccc2)cc1` (stereo not drawn), the displacement was -12.6%.

Take `Cc1ccc(CNC(=O)C(=O)Nc2ccccc2Br)cc1`: the displacement is 5.7%.

Turning to `Cc1ccc(S(=O)(=O)N2CCN(Cc3c[nH]c4ccccc34)CC2)cc1`, the displacement is -7.5%.

Turning to `Cc1c(C)c(C)c(C(=O)Nc2ccc(Cl)c(Cl)c2)c(C)c1C`, the displacement was found to be 12.4%.

Turning to `O=C(NCCN1CCOCC1)C1CC2CCC1C2` (stereo not drawn), the displacement is 0.3%.

Regarding `Nc1ccccc1N=CC1=C(O)CNC1=O`, the displacement amounted to 37.4%.

`Cc1ccc(C=Nc2cc(C)on2)c(O)c1`: the displacement is -15.4%.

As for `Cn1c(=O)n(CCOc2ccc(F)cc2)c2ccccc21`, the displacement turned out to be 2.6%.

With `O=c1c2ccccc2c(-c2ccc(F)cc2)nn1-c1cc(Cl)ccc1[N+](=O)[O-]`, the displacement worked out at 10.5%.

As for `NC(=O)Cn1cc(/C=C2\C(=O)NC(=O)N(Cc3ccccc3)C2=O)c2ccccc21`, the displacement worked out at 17%.

For `O=C1N=C(N2CCCC2)S/C1=C\c1ccc(O)cc1`, the displacement is -15.4%.

On to `O=S(=O)(NCc1cccnc1)c1ccc(Cl)c(Cl)c1`, for which the displacement was -6.7%.

For the compound `CCC(=O)NC(Nc1ccc(C)cn1)(C(F)(F)F)C(F)(F)F`, the displacement was 10%.

In the case of `Nc1ccc2nc(SCc3ccc(C(=O)O)cc3)sc2c1`, the displacement turned out to be 0.9%.

Consider `Cc1cccc(CN2CCN(C(=O)c3ccco3)CC2)c1`, for which the displacement amounted to 0.3%.

For the compound `CC(Oc1ccc(Br)cc1)C(=O)N/N=C/c1ccccc1O` (stereo not drawn), the displacement stood at 3.3%.

`NC(=O)c1ccccc1NC(=O)c1cc2ccccc2o1`: the displacement is -34.7%.

As to `O=C(Cn1nnc(-c2ccccc2Cl)n1)N/N=C/c1cc(Cl)cc(Cl)c1O`, the displacement is -8.4%.
